Some of the results follow. Many values rest on one well or one pass, so single values are uncertain.
System: A101D
Test: cell count relative to DMSO control; melanoma cells; higher = more viable cells
Conditions: library dose: low library concentration; 72 h
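Note: cell number obtained by counting DAPI-stained nuclei in high-throughput microscope images with image analysis software, screen run in 1,536-well plates.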

Structure (SMILES)	cell count [%]
Cc1ccc(Nc2nccc(N(C)c3ccc4c(C)n(C)nc4c3)n2)cc1S(N)(=O)=O [Pazopanib] + COc1ccc(COc2ccc(Cc3cnc(N)nc3N)cc2OC)cc1 [GW2580] (first compound 0.4 µM, partner dose 1 µM)	103
CC1(C)CCC(c2ccc(Cl)cc2)=C(CN2CCN(c3ccc(C(=O)NS(=O)(=O)c4ccc(N[C@H](CCN5CCOCC5)CSc5ccccc5)c(S(=O)(=O)C(F)(F)F)c4)cc3)CC2)C1 + O=c1cc(-c2cccc3c2Sc2ccccc2S3)oc(N2CCOCC2)c1 [KU55933] (first compound 0.4 µM, partner dose 1 µM)	57.9
CC1(C)CCC(c2ccc(Cl)cc2)=C(CN2CCN(c3ccc(C(=O)NS(=O)(=O)c4ccc(N[C@H](CCN5CCOCC5)CSc5ccccc5)c(S(=O)(=O)C(F)(F)F)c4)cc3)CC2)C1 + N#Cc1c(O)c2c(-c3ccc(-c4ccccc4O)cc3)csc2[nH]c1=O [A769662] (first compound 0.4 µM, partner dose 2 µM)	66.7
CC1(C)CCC(c2ccc(Cl)cc2)=C(CN2CCN(c3ccc(C(=O)NS(=O)(=O)c4ccc(N[C@H](CCN5CCOCC5)CSc5ccccc5)c(S(=O)(=O)C(F)(F)F)c4)cc3)CC2)C1 + c1cc(-c2cnn3cc(-c4ccc(OCCN5CCCCC5)cc4)cnc23)ccn1 [Dorsomorphin] (first compound 0.4 µM, partner dose 0.4 µM)	53.3
O=C(/C=C/c1cccnc1)NCCCCC1CCN(C(=O)c2ccccc2)CC1 + Cc1cc(Nc2cc(N3CCN(C)CC3)nc(/C=C/c3ccccc3)n2)n[nH]1 [ENMD2076] (first compound 0.01 µM, partner dose 0.04 µM)	79.7
O=C(/C=C/c1cccnc1)NCCCCC1CCN(C(=O)c2ccccc2)CC1 + CC(C)CCN1c2nc(Nc3cc(F)c(O)c(F)c3)ncc2N(C)C(=O)C1C [BID1870] (first compound 0.01 µM, partner dose 0.2 µM)	78.4
O=C(/C=C/c1cccnc1)NCCCCC1CCN(C(=O)c2ccccc2)CC1 + Cc1cc([N+](=O)[O-])ccc1NS(=O)(=O)c1cc(Cl)ccc1Cl [FH535] (first compound 0.01 µM, partner dose 1 µM)	90.4
Cc1ccc(Nc2nccc(N(C)c3ccc4c(C)n(C)nc4c3)n2)cc1S(N)(=O)=O [Pazopanib] + O=C1NC(=O)/C(=C/c2ccc(-c3ccc(F)cc3O)o2)S1 [AS252424] (first compound 0.4 µM, partner dose 1 µM)	85.5
CC1(C)CCC(c2ccc(Cl)cc2)=C(CN2CCN(c3ccc(C(=O)NS(=O)(=O)c4ccc(N[C@H](CCN5CCOCC5)CSc5ccccc5)c(S(=O)(=O)C(F)(F)F)c4)cc3)CC2)C1 + O=C(O)C(=O)Nc1sc2c(c1C(=O)O)CCNC2 [TCS401] (first compound 0.4 µM, partner dose 1.66667 µM)	48.1
Cc1ccc(Nc2nccc(N(C)c3ccc4c(C)n(C)nc4c3)n2)cc1S(N)(=O)=O [Pazopanib] + CCc1ccc(CCOc2ccc(CC3SC(=O)NC3=O)cc2)nc1 [pioglitazone] (first compound 0.4 µM, partner dose 2 µM)	94.1
CC1(C)CCC(c2ccc(Cl)cc2)=C(CN2CCN(c3ccc(C(=O)NS(=O)(=O)c4ccc(N[C@H](CCN5CCOCC5)CSc5ccccc5)c(S(=O)(=O)C(F)(F)F)c4)cc3)CC2)C1 + Oc1nc(-c2ccc(C(F)(F)F)cc2)nc2c1CSCC2 [XAV939] (first compound 0.4 µM, partner dose 2 µM)	54.5
Cc1ccc(Nc2nccc(N(C)c3ccc4c(C)n(C)nc4c3)n2)cc1S(N)(=O)=O [Pazopanib] + COc1ccc2c(c1)CCC1C2CCC2(C)C(NCCCCCCN3C(=O)C=CC3=O)CCC12 [U73122] (first compound 0.4 µM, partner dose 0.4 µM)	95
CC1(C)CCC(c2ccc(Cl)cc2)=C(CN2CCN(c3ccc(C(=O)NS(=O)(=O)c4ccc(N[C@H](CCN5CCOCC5)CSc5ccccc5)c(S(=O)(=O)C(F)(F)F)c4)cc3)CC2)C1 + O=S(=O)(c1ccccc1)N(CC(F)(F)F)c1ccc(C(O)(C(F)(F)F)C(F)(F)F)cc1 [T0901317] (first compound 0.4 µM, partner dose 1.4 µM)	54
Cc1ccc(Nc2nccc(N(C)c3ccc4c(C)n(C)nc4c3)n2)cc1S(N)(=O)=O [Pazopanib] + COC(=O)c1sccc1S(=O)(=O)Nc1ccc(Nc2ccccc2)cc1OC [GSK0660] (first compound 0.4 µM, partner dose 1 µM)	99.5
Cc1ccc(Nc2nccc(N(C)c3ccc4c(C)n(C)nc4c3)n2)cc1S(N)(=O)=O [Pazopanib] + Cn1cc(/C=C2\C(=O)Nc3cccnc32)c2ccccc21 [GW441756] (first compound 0.4 µM, partner dose 0.4 µM)	98.3
Cc1ccc(Nc2nccc(N(C)c3ccc4c(C)n(C)nc4c3)n2)cc1S(N)(=O)=O [Pazopanib] + C[C@@H](Oc1cc(-c2cnn(C3CCNCC3)c2)cnc1N)c1c(Cl)ccc(F)c1Cl [Crizotinib] (first compound 0.4 µM, partner dose 0.2 µM)	97
CC1(C)CCC(c2ccc(Cl)cc2)=C(CN2CCN(c3ccc(C(=O)NS(=O)(=O)c4ccc(N[C@H](CCN5CCOCC5)CSc5ccccc5)c(S(=O)(=O)C(F)(F)F)c4)cc3)CC2)C1 + COc1ccc(-c2ccc3c(N4CCOCC4)nc(N4C[C@@H](C)O[C@@H](C)C4)nc3n2)cc1CO [KU0063794] (first compound 0.4 µM, partner dose 0.02 µM)	52.3
O=C(/C=C/c1cccnc1)NCCCCC1CCN(C(=O)c2ccccc2)CC1 + N#Cc1c(O)c2c(-c3ccc(-c4ccccc4O)cc3)csc2[nH]c1=O [A769662] (first compound 0.01 µM, partner dose 2 µM)	76.7
O=C(/C=C/c1cccnc1)NCCCCC1CCN(C(=O)c2ccccc2)CC1 + COc1ccc(COc2ccc(Cc3cnc(N)nc3N)cc2OC)cc1 [GW2580] (first compound 0.01 µM, partner dose 1 µM)	94.7
Cc1ccc(Nc2nccc(N(C)c3ccc4c(C)n(C)nc4c3)n2)cc1S(N)(=O)=O [Pazopanib] + c1cc(-c2cnn3cc(-c4ccc(OCCN5CCCCC5)cc4)cnc23)ccn1 [Dorsomorphin] (first compound 0.4 µM, partner dose 0.4 µM)	104
O=C(/C=C/c1cccnc1)NCCCCC1CCN(C(=O)c2ccccc2)CC1 + CCc1ccc(CCOc2ccc(CC3SC(=O)NC3=O)cc2)nc1 [pioglitazone] (first compound 0.01 µM, partner dose 2 µM)	93.8
CC1(C)CCC(c2ccc(Cl)cc2)=C(CN2CCN(c3ccc(C(=O)NS(=O)(=O)c4ccc(N[C@H](CCN5CCOCC5)CSc5ccccc5)c(S(=O)(=O)C(F)(F)F)c4)cc3)CC2)C1 + Cc1cc(N2CCOCC2)cc2[nH]c(-c3c(NC[C@@H](O)c4cccc(Cl)c4)cc[nH]c3=O)nc12 [BMS536924] (first compound 0.4 µM, partner dose 0.2 µM)	42.1

Source: the supplement of paper PMC4604168 (melanoma cell lines)
